Measurements published in PubChem BioAssay AID360 (National Center for Advancing Translational Sciences (NCATS), 2006).
In all, about 48,000 compounds went through this assay and about 550 (1.1%) were called active. Roughly 4% stayed inconclusive and do not appear here. Cut-off read from the data, not from the text of the source: active = potency below about 15 µM; inconclusive = mostly about 16 µM to 33 µM; inactive = weaker than that. This is one part of the list.

These compounds were tested against Lysosomal acid glucosylceramidase (Homo sapiens) (UniProt P04062) (assay: Glucocerebrosidase). Conditions: purified enzyme, resorufin glucoside fluorescence (screen aimed at inhibitors), 20 min.
How it was run: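 Wild-type enzyme at 0.2 nM final in 50mM citric acid/KH2PO4, 10mM sodium taurocholate, 0.01% tween-20, pH 5.9, with resorufin beta-D-glucopyranoside at 30 uM final. Compounds titrated, 20 min at RT, red fluorescence read; AC50 from titration.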
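Note: the screen sought inhibitors.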
Potency is the fitted concentration of half-maximal effect.

UniProt P04062, sequence (P04062 whole entry, looked up): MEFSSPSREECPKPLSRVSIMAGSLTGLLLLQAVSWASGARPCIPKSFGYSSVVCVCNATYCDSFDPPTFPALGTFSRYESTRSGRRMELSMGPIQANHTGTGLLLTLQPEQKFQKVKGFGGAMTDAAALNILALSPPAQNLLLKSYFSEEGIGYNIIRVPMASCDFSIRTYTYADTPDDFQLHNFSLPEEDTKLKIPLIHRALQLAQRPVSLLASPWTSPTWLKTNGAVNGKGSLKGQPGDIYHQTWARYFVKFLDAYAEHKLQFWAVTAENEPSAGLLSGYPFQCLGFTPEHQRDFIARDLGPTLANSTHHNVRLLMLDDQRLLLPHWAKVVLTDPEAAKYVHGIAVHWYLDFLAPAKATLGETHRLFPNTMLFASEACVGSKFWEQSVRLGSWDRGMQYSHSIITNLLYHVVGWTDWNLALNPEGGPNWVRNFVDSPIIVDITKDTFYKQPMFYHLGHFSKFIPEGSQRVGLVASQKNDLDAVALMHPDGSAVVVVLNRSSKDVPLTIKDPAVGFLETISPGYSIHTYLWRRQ

Potency, inactive:
COCCNC(=O)c1sc2nc(-c3ccccc3)cn2c1C > 76.9 µM
COC(=O)C(NS(=O)(=O)c1ccc(NC(C)=O)cc1)C(C)C (configuration not stated) > 76.9 µM
Cc1nc2ccccc2n1CC(=O)NCc1ccccc1 > 76.9 µM
COc1ccc(S(N)(=O)=O)cc1C(=O)NCC1(N2CCCCC2)CCCCC1 > 76.9 µM
O=C(CCN1C(=O)C2C3C=CC(C3)C2C1=O)N1CC(=O)N(CCc2ccccc2)C(=O)C1 (configuration not stated) > 76.9 µM
CN1C(=O)c2oc3ccccc3c(=O)c2C1c1ccncc1 (configuration not stated) > 76.9 µM
CC1(C)CC(=O)C(CCC(=O)c2ccccc2)C(C)(C)N1 (configuration not stated) > 76.9 µM
Fc1ccc(-c2cc3nc4c(c(N5CCOCC5)n3n2)CCCC4)cc1 > 76.9 µM
O=S(=O)(/C=C/c1ccccc1)n1cnc2ccccc21 > 76.9 µM
O=C(OCCN1C(=O)c2ccccc2C1=O)c1cccc(OC(F)F)c1 > 76.9 µM
CCCC1(C(=O)OC)NC(c2cc(OC)c(OC)c(OC)c2)C2C(=O)N(CC)C(=O)C21 (configuration not stated) > 76.9 µM
CC(C)Nc1oc(-c2cccc3ccccc23)nc1C#N > 76.9 µM
Cn1c(=O)oc2cc(S(=O)(=O)Nc3ccc4c(c3)OCCO4)ccc21 > 76.9 µM
O=C(CN(Cc1ccc(F)cc1)C(=O)Cn1nnc2ccccc21)NCC1CCCO1 (configuration not stated) > 76.9 µM
CSc1ccccc1NC(=O)c1ccccc1N(C)S(C)(=O)=O > 76.9 µM
CC(=O)N1CCc2cc(S(=O)(=O)NCCC(=O)Nc3ccc4c(c3)OCCO4)ccc21 > 76.9 µM
CCN1CCN(C(c2ccccc2F)c2nnnn2Cc2ccc3c(c2)OCO3)CC1 (configuration not stated) > 76.9 µM
COc1ccc(C(=O)OCC(=O)c2cc(OC)ccc2OC)c(OC)c1 > 76.9 µM
CCOC(=O)CSc1nnc(CNc2ccc(Cl)cc2)n1-c1ccccc1 > 76.9 µM
Cc1cc(Cl)c(OCCCn2cncn2)c(Br)c1 > 76.9 µM
Nc1ccc2oc(-c3ccccn3)nc2c1 > 76.9 µM
CCOC(=O)c1cccc(NC(=O)c2cnccn2)c1 > 76.9 µM
CS(=O)(=O)Nn1cnc2ccccc2c1=O > 76.9 µM
O=c1ccn(Cc2ccccc2Cl)cc1 > 76.9 µM
O=C(O)c1ccc2noc(-c3ccccc3)c2c1 > 76.9 µM
COc1ccccc1N(C(=O)CNS(=O)(=O)c1ccccc1)C(C(=O)NCc1ccco1)C(C)C (configuration not stated) > 76.9 µM
CCCc1nnc(SCCSc2nnc(CCC)n2N)n1N > 76.9 µM
CCc1cc2cc(C)ccc2nc1SCC(=O)N1CCN(C(=O)c2ccco2)CC1 > 76.9 µM
Cc1ccc(CCNC(=O)NC(C)(C)C)cc1 > 76.9 µM
COc1c2occc2cc2ccc(=O)oc12 > 76.9 µM
CCC(C)(C(=O)NC1CCCCC1)N(Cc1ccco1)C(=O)c1ccc2c(c1)OCO2 (configuration not stated) > 76.9 µM
COc1ccc2c(CC(=O)OCC(=O)N3CCc4ccccc43)coc2c1 > 76.9 µM
Cc1cc(Cl)c(S(=O)(=O)NCC2CCCO2)cc1OCC(N)=O (configuration not stated) > 76.9 µM
N#Cc1c(SCC(=O)N2CCCCC2)nsc1SCC(=O)N1CCCCC1 > 76.9 µM
O=C(O)c1ccc(NCc2cccnc2)cc1 > 76.9 µM
CC(C)n1c(=N)c(C(=O)NCCc2ccccc2)cc2c(=O)n3ccccc3nc21 > 76.9 µM
Cc1cc2oc(C(=O)NCc3ccc4c(c3)OCO4)c(C)c2cc1C > 76.9 µM
COc1ccc(OCC(=O)N2CCN(C(=O)COc3ccccc3)CC2)cc1 > 76.9 µM
CCOc1ccc(-c2csc(NC(=O)C3CCCO3)n2)cc1 (configuration not stated) > 76.9 µM
O=C(NCc1ccc(F)cc1)c1cc(-c2ccco2)on1 > 76.9 µM
O=C1C=C(NCC2CCCO2)C2(CCCCC2)O1 (configuration not stated) > 76.9 µM
CCOc1ncccc1C(=O)Nc1ccc(-c2cn3ccsc3n2)cc1 > 76.9 µM
COC(=O)CS(=O)(=O)c1nnc([C@H](Cc2ccccc2)NC(=O)OC(C)(C)C)o1 > 76.9 µM
O=C(Nc1ccc(F)cc1F)c1ccc(COc2c(F)c(F)cc(F)c2F)o1
Cc1cccc2sc(NC(=O)CN(C)S(=O)(=O)c3ccc(Br)s3)nc12 > 76.9 µM
O=c1c(-c2ccc(F)cc2)coc2c3c(ccc12)OCCO3 > 76.9 µM
O=C1CCCCCN1C(=O)c1ccc(C(=O)N2CCCCCC2=O)cc1 > 76.9 µM
CCOC(=O)C1CCN(C(=O)C2CCN(c3nc4ccc(OC)cc4s3)CC2)CC1 > 76.9 µM
COc1ccc(N2CCN(Cc3nc(-c4ccc(Cl)cc4Cl)no3)CC2)cc1 > 76.9 µM
Cc1cc(C)nc(Nc2n[nH]c(COc3ccccc3)n2)n1 > 76.9 µM
Cc1ccc(C(=O)C(NC(=O)c2ccco2)N2CCOCC2)cc1 (configuration not stated) > 76.9 µM
COc1cc(OC)cc(-n2nnnc2SCC(=O)N2CCCC2)c1 > 76.9 µM
CN=C1SC(CC(=O)NCCc2ccc(OC)c(OC)c2)C(=O)N1C (configuration not stated) > 76.9 µM
COc1cccc(-c2nnc(SCC(=O)Nc3ccc(OC)c(OC)c3)n2N)c1 > 76.9 µM
Cc1ccc(C(=O)CSc2nnc(-c3cccnc3)n2N)cc1 > 76.9 µM
O=C(NC1CCCC1)C1CC(c2ccc(F)cc2)=NO1 (configuration not stated) > 76.9 µM
CCS(=O)(=O)Nc1ccc(-c2nnc(SCC(=O)c3ccc(NC(C)=O)c(OC)c3)o2)cc1 > 76.9 µM
O=C(Nc1ccc(N2CCCC2=O)cc1)c1cccc(F)c1 > 76.9 µM
N#Cc1nc(COc2ccccc2F)oc1NCCc1ccccc1
Cc1ccc(C(=O)NCCN(C)C)c(C)c1 > 76.9 µM
COC(=O)COc1cccc(NC(=O)c2ccccc2)c1 > 76.9 µM
COc1ccc(Cl)cc1NC(=O)NC(C)c1ccncc1 (configuration not stated) > 76.9 µM
O=C(CCc1nc(-c2ccccc2F)no1)Nc1ccc(Oc2ccccc2)cc1 > 76.9 µM
CC(NC(=O)c1ccccc1)C(=O)NC1=NCCS1 (configuration not stated) > 76.9 µM
COc1ccc(N2C(=O)C(CC(=O)O)S/C2=C\C(C)=O)cc1 (configuration not stated) > 76.9 µM
CS(=O)(=O)N(CCc1ccccc1)CC(=O)N1CCN(c2ccccc2)CC1 > 76.9 µM
O=C(C1CCCN(S(=O)(=O)Cc2ccccc2)C1)N1CCCCC1 (configuration not stated) > 76.9 µM
CC1(C)CC(=O)C2=C(C1)NC(=O)CC2c1cccc(F)c1 (configuration not stated) > 76.9 µM
CSc1ncccc1C(=O)OCC(=O)NC1CCS(=O)(=O)C1 (configuration not stated) > 76.9 µM
CCOC(=O)c1c(CN2CCC(C)CC2)oc2ccc(OC)cc12
COc1ccc(-n2c(=O)cc(N3CCc4ccccc43)[nH]c2=O)cc1 > 76.9 µM
CC1=C(C(=O)NCc2ccccc2)C(c2ccccc2OCC(N)=O)NC(=O)N1 (configuration not stated) > 76.9 µM
CCCCC(=O)N(c1ccc(OC)cc1)C1C=CS(=O)(=O)C1 (configuration not stated)
COc1ccccc1NC(=O)C(C)NS(=O)(=O)c1ccc(Cl)cc1 (configuration not stated) > 76.9 µM
C=CCn1c(SCC(=O)Nc2nccs2)nnc1-c1cc2cccc(OC)c2o1 > 76.9 µM
CC(Sc1nnc(-c2cc3ccccc3o2)n1-c1ccccc1)C(=O)O (configuration not stated) > 76.9 µM
COC(=O)c1cc(Br)c(=O)n(CC(C)C)c1 > 76.9 µM
O=C(c1ccc(Cn2cc(Br)cn2)cc1)N1CCN(c2ccccc2)CC1 > 76.9 µM
CCC(Oc1ccccc1)C(=O)NCc1cccnc1 (configuration not stated) > 76.9 µM
CC(=O)Nc1ccc(S(=O)(=O)N(C)CC(=O)NC2=NCCS2)cc1 > 76.9 µM
O=C(CCn1nnc2ccccc2c1=O)N[C@@H](Cc1ccccc1)C(=O)O > 76.9 µM
O=C(CSc1nccn1-c1ccc(Cl)cc1)Nc1ccc2c(c1)OCO2
CCc1c(C)nc2cc(-c3cc(OC)cc(OC)c3)nn2c1N1CCCC1 > 76.9 µM
CCCc1cc(C(N)=O)c(NC(=O)c2ccoc2C)s1 > 76.9 µM
CC1=CCP(=O)(c2ccccc2)C1 (configuration not stated) > 76.9 µM
CC(C)NCC(O)Cn1c2c(c3ccccc31)CCc1c-2cnn1-c1ccccc1 (configuration not stated) > 76.9 µM
CCOC(=O)C1(CCSC)NC(c2ccco2)C2C(=O)N(C)C(=O)C21 (configuration not stated) > 76.9 µM
Cc1cc(C)nc(N2CCC(C(=O)NCc3ccco3)CC2)n1 > 76.9 µM
CCOc1cc(C(=O)CSc2nnc(CNc3ccc(Cl)cc3)o2)ccc1NC(=O)CC > 76.9 µM
COc1ccc(-c2cc(C(=O)NCC(C)C)no2)cc1 > 76.9 µM
O=C(CSc1nnc(COc2cccc3cccnc23)o1)N1CCc2ccccc21 > 76.9 µM
CCOC(=O)CSc1nnc([C@H](Cc2ccccc2)NC(=O)OC(C)(C)C)o1 > 76.9 µM
